Measurements published in a collection of fitness landscapes (doi:10.1126/science.1257360).
This is one part of the list.

B1: PhoQ; a variant is named by its letters at X, in order, P23837 (parent)
chain: MKKLLRLFFPLSLRVRFLLATAAVVLVLSLAYGMVALIGYSVSFDKTTFRLLRGESNLFYTLAKWENNKLHVELPENIDKQSPTMTLIYDENGQLLWAQRDVPWLMKMIQPDWLKSNGFHEIEADVNDTSLLLSGDHSIQQQLQEVREDDDDAEMTHSVAVNVYPATSRMPKLTIVVVDTIPVELKSSYMVWSWFIYVLSANLLLVIPLLWVAAWWSLRPIEALAKEVRELEEHNRELLNPATTRELTSLVRNLNRLLKSERERYDKYRTTLTDLTHSLKTPLXXLQXXLRSLRSEKMSVSDAEPVMLEQISRISQQIGYYLHRASMRGGTLLSRELHPVAPLLDNLTSALNKVYQRKGVNISLDISPEISFVGEQNDFVEVMGNVLDNACKYCLEFVEISARQTDEHLYIVVEDDGPGIPLSKREVIFDRGQRVDTLRPGQGVGLAVAREITEQYEGKIVAGESMLGGARMEVIFGRQHSAPKDE

Variants of: B1
Experiment: enrichment ratio after two sorts for PhoP signalling (ratio (wild type AVST 3.29)); higher = more functional
Settings: with PhoP (E. coli)

| Variant | enrichment ratio |
| --- | --- |
| MSNN | ≤ 0.25 |
| SVVH | 2.61 |
| MTGY | 14.4 |
| WDWH | ≤ 0.25 |
| FWAQ | ≤ 0.25 |
| SKLE | 8.51 |
| FDRP | ≤ 0.25 |
| IGPS | 0.55 |
| RTNG | ≤ 0.25 |
| RKCL | ≤ 0.25 |
| VNEQ | ≤ 0.25 |
| WDGT | ≤ 0.25 |
| PSYL | ≤ 0.25 |
| HKLP | ≤ 0.25 |
| PTWI | ≤ 0.25 |
| YNPG | ≤ 0.25 |
| RKPF | ≤ 0.25 |
| FVNI | ≤ 0.25 |
| LQCH | ≤ 0.25 |
| YNGH | 0.32 |
| GMAW | ≤ 0.25 |
| RNHQ | ≤ 0.25 |
| NCPL | ≤ 0.25 |
| WFDG | ≤ 0.25 |

| Variant | enrichment ratio |
| --- | --- |
| VKDK | ≤ 0.25 |
| KSTT | ≤ 0.25 |
| HMAT | ≤ 0.25 |
| MNSS | 0.46 |
| WGVH | ≤ 0.25 |
| DLAY | ≤ 0.25 |
| ICCN | ≤ 0.25 |
| DDNC | ≤ 0.25 |
| QYPK | ≤ 0.25 |
| SQFK | ≤ 0.25 |
| RMMW | ≤ 0.25 |
| IQCQ | ≤ 0.25 |
| NLYV | ≤ 0.25 |
| IHAE | ≤ 0.25 |
| YLCI | ≤ 0.25 |
| FNNS | ≤ 0.25 |
| SQWH | ≤ 0.25 |
| NAGT | ≤ 0.25 |
| DGTK | ≤ 0.25 |
| TMDY | ≤ 0.25 |
| NSMW | ≤ 0.25 |
| MHKP | ≤ 0.25 |
| SEIW | 1.6 |
| SERH | ≤ 0.25 |

| Variant | enrichment ratio |
| --- | --- |
| MNWI | 6.11 |
| HQPE | ≤ 0.25 |
| WSQD | ≤ 0.25 |
| GGMV | 5 |
| SEKC | ≤ 0.25 |
| IEFW | ≤ 0.25 |
| MRWM | ≤ 0.25 |
| NKHM | ≤ 0.25 |
| MMVY | 4.88 |
| NKGQ | ≤ 0.25 |
| QADV | 6.54 |
| ARPD | ≤ 0.25 |
| QTYE | ≤ 0.25 |
| MGWF | 2.17 |
| ESAH | ≤ 0.25 |
| KWCS | ≤ 0.25 |
| PYGH | ≤ 0.25 |
| RGTE | ≤ 0.25 |
| AGPA | ≤ 0.25 |
| SWHM | ≤ 0.25 |
| KMGY | ≤ 0.25 |
| SLHW | ≤ 0.25 |
| MHSM | ≤ 0.25 |
| SMTC | 8.15 |

| Variant | enrichment ratio |
| --- | --- |
| MEWR | ≤ 0.25 |
| MHLS | ≤ 0.25 |
| PMEK | ≤ 0.25 |
| KHNS | ≤ 0.25 |
| EDTW | ≤ 0.25 |
| IIMW | ≤ 0.25 |
| NVSI | ≤ 0.25 |
| SWGE | ≤ 0.25 |
| IQYD | ≤ 0.25 |
| TTWI | 9.7 |
| KKYL | ≤ 0.25 |
| AHAF | ≤ 0.25 |
| PNRH | ≤ 0.25 |
| HVHF | ≤ 0.25 |
| LAPS | ≤ 0.25 |
| DDSL | ≤ 0.25 |
| TDRG | ≤ 0.25 |
| YPVF | ≤ 0.25 |
| AFFD | ≤ 0.25 |
| PWHV | ≤ 0.25 |
| KTES | ≤ 0.25 |
| NVKD | ≤ 0.25 |
| LTFM | ≤ 0.25 |
| HIFP | ≤ 0.25 |

| Variant | enrichment ratio |
| --- | --- |
| YDYI | ≤ 0.25 |
| QFTD | ≤ 0.25 |
| RIVF | ≤ 0.25 |
| DMCV | ≤ 0.25 |
| ADSP | ≤ 0.25 |
| NPHP | ≤ 0.25 |
| NYAF | ≤ 0.25 |
| ECMG | ≤ 0.25 |
| YCFN | ≤ 0.25 |
| WVAR | ≤ 0.25 |
| GEVT | 9.41 |
| WAQH | ≤ 0.25 |
| KRFK | ≤ 0.25 |
| KGEF | ≤ 0.25 |
| AVLS | 6.77 |
| FIQY | ≤ 0.25 |
| DDHC | ≤ 0.25 |
| QDLG | ≤ 0.25 |
| YLTK | ≤ 0.25 |
| LFSQ | ≤ 0.25 |
| HHKP | ≤ 0.25 |
| RSTV | ≤ 0.25 |
| LDVI | ≤ 0.25 |
| YWVI | ≤ 0.25 |

| Variant | enrichment ratio |
| --- | --- |
| EEVV | ≤ 0.25 |
| PAVD | ≤ 0.25 |
| QLWK | ≤ 0.25 |
| NSHQ | ≤ 0.25 |
| HNGP | ≤ 0.25 |
| GQGA | ≤ 0.25 |
| PVLI | ≤ 0.25 |
| FNHH | ≤ 0.25 |
| PGTA | ≤ 0.25 |
| LEEK | ≤ 0.25 |
| QTCQ | ≤ 0.25 |
| DASK | ≤ 0.25 |
| GKSS | ≤ 0.25 |
| EPHV | ≤ 0.25 |
| EMYI | ≤ 0.25 |
| HKRF | ≤ 0.25 |
| YEEW | ≤ 0.25 |
| STHP | ≤ 0.25 |
| MPIE | ≤ 0.25 |
| TQHM | 1.49 |
| WDEF | ≤ 0.25 |
| FRGK | ≤ 0.25 |
| HMTA | ≤ 0.25 |
| LHYS | ≤ 0.25 |

| Variant | enrichment ratio |
| --- | --- |
| IQTL | ≤ 0.25 |
| YEEP | ≤ 0.25 |
| MMPI | ≤ 0.25 |
| CRFC | ≤ 0.25 |
| IPGA | ≤ 0.25 |
| HLWE | ≤ 0.25 |
| SMWQ | ≤ 0.25 |
| QRSL | ≤ 0.25 |
| EYQM | ≤ 0.25 |
| VDMH | ≤ 0.25 |
| PLFN | ≤ 0.25 |
| NYDN | ≤ 0.25 |
| DCPM | ≤ 0.25 |
| CLLI | 11 |
| SLSN | 8.45 |
| PTNS | ≤ 0.25 |
| PNYA | ≤ 0.25 |
| VHLW | ≤ 0.25 |
| VDFV | ≤ 0.25 |
| KCDV | ≤ 0.25 |
| DSRM | ≤ 0.25 |
| RMKH | ≤ 0.25 |
| VTDE | ≤ 0.25 |
| LYAK | ≤ 0.25 |

| Variant | enrichment ratio |
| --- | --- |
| QEFE | ≤ 0.25 |
| TDTA | 0.556 |
| NIFC | ≤ 0.25 |
| EGYI | ≤ 0.25 |
| SGVC | 9.59 |
| YGSD | ≤ 0.25 |
| VIGW | ≤ 0.25 |
| YTDW | ≤ 0.25 |
| HDSN | ≤ 0.25 |
| CLIV | ≤ 0.25 |
| SLLL | 5.02 |
| HDCL | ≤ 0.25 |
| LTKL | ≤ 0.25 |
| YQWI | ≤ 0.25 |
| HFLC | ≤ 0.25 |
| GMQA | ≤ 0.25 |
| SYHQ | ≤ 0.25 |
| TVCF | ≤ 0.25 |
| TKWR | ≤ 0.25 |
| VGMW | ≤ 0.25 |
| SFQH | ≤ 0.25 |
| HIMP | ≤ 0.25 |
| WDQS | ≤ 0.25 |
| NNAT | ≤ 0.25 |

| Variant | enrichment ratio |
| --- | --- |
| FPED | ≤ 0.25 |
| AMNK | ≤ 0.25 |
| LPFQ | ≤ 0.25 |
| VGRD | ≤ 0.25 |
| EKFA | ≤ 0.25 |
| FKME | ≤ 0.25 |
| FVVN | ≤ 0.25 |
| YCCS | ≤ 0.25 |
| MCSP | ≤ 0.25 |
| NLMI | ≤ 0.25 |
| YTHQ | ≤ 0.25 |
| LRTG | ≤ 0.25 |
| IHLI | ≤ 0.25 |
| PEWF | ≤ 0.25 |
| IQKI | ≤ 0.25 |
| GILM | 15.7 |
| FITP | ≤ 0.25 |
| YGYH | ≤ 0.25 |
| VATP | ≤ 0.25 |
| AYYQ | ≤ 0.25 |
| AYKA | ≤ 0.25 |
| PRGT | ≤ 0.25 |
| VSNK | ≤ 0.25 |
| INWI | ≤ 0.25 |

| Variant | enrichment ratio |
| --- | --- |
| EKQD | ≤ 0.25 |
| QFNH | ≤ 0.25 |
| IMYQ | ≤ 0.25 |
| WKKN | ≤ 0.25 |
| QRLS | ≤ 0.25 |
| ECFE | ≤ 0.25 |
| DRRD | ≤ 0.25 |
| FYLR | ≤ 0.25 |
| DAQV | ≤ 0.25 |
| LITG | ≤ 0.25 |
| ATLM | 21.4 |
| VFCT | ≤ 0.25 |
| RFWR | ≤ 0.25 |
| QRYC | ≤ 0.25 |
| KKCG | ≤ 0.25 |
| YISM | 0.688 |
| RAIQ | ≤ 0.25 |
| YEIQ | ≤ 0.25 |
| AHHK | ≤ 0.25 |
| RHSQ | ≤ 0.25 |
| EVLS | ≤ 0.25 |
| WAKL | ≤ 0.25 |
| QNEG | ≤ 0.25 |
| VQMH | ≤ 0.25 |

| Variant | enrichment ratio |
| --- | --- |
| TDFE | ≤ 0.25 |
| PKHL | ≤ 0.25 |
| IFTL | ≤ 0.25 |
| YENN | ≤ 0.25 |
| PEAI | ≤ 0.25 |
| YSWD | ≤ 0.25 |
| SWLE | ≤ 0.25 |
| SIAT | 3.56 |
| SKPP | ≤ 0.25 |
| TRKK | ≤ 0.25 |
| AYFE | ≤ 0.25 |
| ISSL | ≤ 0.25 |
| SRHK | ≤ 0.25 |
| DLSN | ≤ 0.25 |
| LTNH | ≤ 0.25 |
| MVWW | ≤ 0.25 |
| RYKW | ≤ 0.25 |
| ASWN | ≤ 0.25 |
| YEAR | ≤ 0.25 |
| EKQE | ≤ 0.25 |
| GWME | ≤ 0.25 |
| YGCY | ≤ 0.25 |
| ELKC | ≤ 0.25 |
| TKQL | 23.2 |

| Variant | enrichment ratio |
| --- | --- |
| YLFM | ≤ 0.25 |
| VIYN | ≤ 0.25 |
| LKAT | ≤ 0.25 |
| ATPD | ≤ 0.25 |
| VSPG | ≤ 0.25 |
| MPAL | ≤ 0.25 |
| VYMH | ≤ 0.25 |
| QPFQ | ≤ 0.25 |
| AAAT | ≤ 0.25 |
| SQRR | ≤ 0.25 |
| SNKH | ≤ 0.25 |
| KKSA | ≤ 0.25 |
| YMYC | ≤ 0.25 |
| PIMR | ≤ 0.25 |
| AVWD | ≤ 0.25 |
| DIKS | ≤ 0.25 |
| WLLR | ≤ 0.25 |
| YDGT | ≤ 0.25 |
| NGTQ | ≤ 0.25 |
| FWFL | ≤ 0.25 |
| WEYP | ≤ 0.25 |
| RDNA | ≤ 0.25 |
| FYLQ | ≤ 0.25 |
| NHHQ | ≤ 0.25 |

| Variant | enrichment ratio |
| --- | --- |
| NEAY | ≤ 0.25 |
| AGGH | 5.84 |
| PFFR | ≤ 0.25 |
| PTCN | ≤ 0.25 |
| MLLR | ≤ 0.25 |
| YGKC | ≤ 0.25 |
| TQVI | 6.26 |
| WYPY | ≤ 0.25 |
| VVHW | ≤ 0.25 |
| QKRN | ≤ 0.25 |
| TDCA | 14.6 |
| APID | ≤ 0.25 |
| ECYP | ≤ 0.25 |
| WVWV | ≤ 0.25 |
| NMVF | ≤ 0.25 |
| ESYQ | ≤ 0.25 |
| QCCR | ≤ 0.25 |
| YVGF | ≤ 0.25 |
